The source of these data is PubChem BioAssay AID2060484 (Molecular Pharmacology Branch, DTP, NCI, 2025).

The source holds more than one record for some entries. This list holds those alone. There may be further records. The values listed for one entry repeat one measurement across runs, samples, wells, individuals or studies. Signs of the kind (2×) count equal records among those shown.

For orientation: IC50 means the concentration at which inhibition is half-maximal. For orientation: viability, T/C means the result in the treated group divided by that in the control group, in per cent.

The test system of this experiment is SUM149PT spheroids with HUVEC/MSC, viability. The experiment is described as follows: Anticancer human tumor SUM149PT cell line growth inhibition [GQUAD].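 On all read-outs here: spheroids exposed to drugs for seven days before readout.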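 On viability, T/C: percent viability relative to DMSO vehicle control taken as 100%.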 The settings on record: for IC50: compound alone; for viability, T/C: stronger effect = lower value. The source says:
DNA G-quadruplex Stabilizer Agents in Combinations in Complex Spheroids
A high-throughput screen of multi-cell type tumor spheroids was designed to identify active combinations of DNA G-quadruplex stabilizer agents and targeted small molecules. Complex spheroids include a stromal component modeled by human endothelial cells (HUVEC) and fibroblasts modeled by human mesenchymal stem cells (MSCs). The concentration ranges selected for each drug and investigational agent were based upon clinically achievable concentrations if the clinical Cmax of the agent was known.
Compounds. The drugs and investigational agents: pidnarulex (CX-5461; NSC782164), APTO-253 (NSC789042), BRACO-19 (NSC847499), peposertib (NSC802822), ceralasertib (NSC780249), elimusertib (NSC800525), camonsertib (NSC841442), AZD-1390 (NSC803789), olaparib (NSC753686), talazoparib (NSC767125), ART-558 (NSC835418), sotorasib (NSC818433), MRTX-1133 (NSC836407), SN-38 (NSC673596), topotecan (NSC609699), etoposide (NSC141540), doxorubicin (NSC123127), gemcitabine (NSC613327), 5-fluorouracil (NSC19893), paclitaxel (NSC125973), vemurafenib (NSC761431), panobinostat (NSC761190), R-306465 (JNJ-16241199; NSC773264), adavosertib (NSC754352), TP-3654 (NSC805149), carboplatin (NSC241240), KSQ-4279 (NSC840948), and staurosporine (NSC755774) were obtained from the National Cancer Institute (NCI) Developmental Therapeutics Program Chemical Repository (34). The FDA-approved anticancer drug set is available from the NCI Developmental Therapeutics Program. […] The stock solutions were prepared in dimethyl sulfoxide (DMSO, Sigma-Aldrich, St. Louis, MO, cat. D2650) at 800-fold the tested concentration and stored at -70 degrees C prior to their use. All drugs and investigational agents were tested over a range starting from a high concentration at or near the clinical Cmax and decreasing in half-log increments. If the clinical Cmax for an agent had not been determined, the highest concentration tested was 10 microM.
2.3 Cell Culture. All cells were maintained in an incubator at 37 degrees C and 5% CO2 with 95% humidity. The PDC lines were cultured according to standard operating procedures established by the NCI PDMR. All PDCs were thawed and cultured in Matrigel-coated flasks prepared with a working solution of 1X Ham's F-12 nutrient mix, without supplementation (Invitrogen, cat. 11765054), 100 U/mL penicillin-streptomycin (Invitrogen, cat. 15140122), and 2.5% Matrigel (Corning Inc., cat. 354248) for the first three passages. The 857933-349-R-J2-PDC line was cultured in 6C/Colon 1B media, which includes advanced DMEM/F-12 (Thermo Fisher Scientific, cat. 12634028), 10 mM HEPES (Thermo Fisher Scientific, cat. 15630080), 1X GlutaMAX supplement (Thermo Fisher Scientific, cat. 35050061), 0.1 mg/mL primocin (InvivoGen, cat. ant-pm-2), 10% defined fetal bovine serum, heat inactivated (HyClone Laboratories Inc., cat. SH30070.03HI), 50% L-WRN conditioned media (ATCC, cat. CRL-3276), 1.25 mM N-Acetyl-L-cysteine (Sigma-Aldrich, cat. A9165), 10 mM nicotinamide (Sigma-Aldrich, cat. N0636), 1X B-27 supplement (Thermo Fisher Scientific, cat. 17504044), 1X N-2 supplement (Thermo Fisher Scientific, cat. 17502048), 10 microM Y-27632 dihydrochloride (Tocris Bioscience, cat. 1254), and 50 ng/mL human EGF recombinant protein (Thermo Fisher Scientific, cat. PHG0311). […]

Turning to `CCc1c2c(nc3ccc(O)cc13)-c1cc3c(c(=O)n1C2)COC(=O)[C@]3(O)CC`, the half-maximal inhibitory concentration (IC50) is given as 1.68 nM, 2.76 nM, 17.9 nM. `Cc1cnc(CNC(=O)c2c(=O)c3ccc(N4CCCN(C)CC4)nc3n3c2sc2ccccc23)cn1`: the viability, T/C (compound alone 10 µM) is 0.15, 31.8, 0.26, 8.83, 31.1, 0.24, 1.36, 0.17, 28.8, 13.1, 0.28, 0.34%.

For the compound `Cc1[nH]c2ccc(F)cc2c1-c1nc2c3cccnc3c3ncccc3c2[nH]1`, the viability, T/C reads like this: (compound alone 0.0316 µM) 103, 98.7, 99 (2×), 97, 84, 99.8, 94.4, 94.8, 97.4, 102, 110%; (compound alone 3.16 µM) 107, 101, 90.1, 80, 84.5, 102, 83.7, 88.3, 99.4, 98, 95.8, 91.6%. For the compound `C#Cc1c(F)ccc2cc(O)cc(-c3ncc4c(N5CC6CCC(C5)N6)nc(OCC56CCCN5CC(F)C6)nc4c3F)c12` (stereo not given), the IC50 is on record as 576 nM, 7.72 µM, 4.36 µM.
